# Sequences with one replicate were seen in a single cluster, so their values are uncertain.
# Tested on: ATP
# Assay: switch fluorescence ratio, 500 uM ATP over buffer (Cy3 cluster intensity, sum of 5 cycles each) (fold (ratio)); higher = stronger signal-on switching upon ATP binding; sequences stand for … in TCGTCGGCAGCGTCAGATGTGTATAAGAGACAGTTTTTTTTTTTTTTTTTTTTTTTTT…TC
# Conditions: aptamer strand: ATP DNA aptamer (quencher-CACCTGGGGGAGTATTGCGGAGGAAGG + anchor), 100 nM annealed; ATP concentration: 500 uM; one replicate
# In short: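 Switching-strand clusters labelled with Cy3 on a modified Illumina MiSeq flow-cell were annealed to 100 nM quencher-labelled ATP aptamer, imaged in selection buffer, and re-imaged after 15 min with 500 uM ATP at 22 °C. This was done over five cycles with NaOH stripping and re-annealing in between. The fluorescence ratio is summed target-cycle over summed buffer-cycle Cy3 intensity per cluster, averaged per switch-domain sequence, excluding clusters outside 100-1000 RFU.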
# 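Further: ATP exposure 15 min at 22 °C before imaging.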
row,Sequence,switch fluorescence ratio
1,CATTCTCGCT,1.05
2,CATTGAAATG,1.04
3,CATTGACCTG,1.04
4,CATTGACGAG,0.974
5,CATTGAGGGA,1
6,CATTGATGAC,1
7,CATTGCAAGT,1.06
8,CATTGCGCAC,1.42
9,CATTGCTACG,1.06
10,CATTGCTCGG,0.993
11,CATTGGAGAG,1.03
12,CATTGGAGGC,1.02
13,CATTGGGGAC,0.972
14,CATTGTACAT,1.05
15,CATTGTGTGC,1
16,CATTGTTTAT,0.963
17,CATTTAACTG,1.01
18,CATTTGATGG,0.997
19,CATTTGGACT,1.02
20,CATTTGGCC,1.01
21,CATTTGGTGA,1.02
22,CATTTTAAGG,0.974
23,CATTTTAGAT,1
24,CATTTTGC,1
25,CATTTTGCAC,1.75
26,CATTTTGCAT,0.989

row,Sequence,switch fluorescence ratio
1,CCAAAACCCG,1.08
2,CCAAAAGGTG,2.59
3,CCAAAAGTTT,0.99
4,CCAAAATAGA,0.965
5,CCAAAGTTTC,1.06
6,CCAAATTTTT,1.03
7,CCAACATTGG,1
8,CCAACCAGGT,1.89
9,CCAACCCTAC,2.12
10,CCAACGAAGG,1.01
11,CCAACGCTTG,1.6
12,CCAACGGGTC,1.14
13,CCAACGTTGG,0.999
14,CCAACTGTTA,1.03
15,CCAAGAAATA,1
16,CCAAGACCAT,0.975
17,CCAAGACGAC,3.27
18,CCAAGACTTC,1.17
19,CCAAGATC,1.29
20,CCAAGCGAGA,1.36
21,CCAAGGGCGA,1.19
22,CCAAGGGGAT,1.01
23,CCAAGTATAT,1.02
24,CCAAGTATCC,0.995
25,CCAAGTATTG,1.01
26,CCAATAAATG,0.98

row,Sequence,switch fluorescence ratio
1,CCAATAATAG,1.53
2,CCAATATTTG,0.942
3,CCAATGAAGT,0.968
4,CCAATGACGA,1.02
5,CCAATGCATG,1.14
6,CCAATTTCGG,0.99
7,CCACAGAGAC,2.23
8,CCACAGGCCG,0.965
9,CCACAGGGCC,1.19
10,CCACAGGTAG,1.11
11,CCACATATGT,1.01
12,CCACCAAACA,1.18
13,CCACCACTGC,1.97
14,CCACCAGTTA,1.22
15,CCACCCTGAT,1.05
16,CCACCTGATA,1.07
17,CCACGAACG,1.38
18,CCACGATTAT,1.03
19,CCACGCCATT,1.45
20,CCACGCTGGG,1.17
21,CCACGCTTCG,1.04
22,CCACGGGGAA,1.04
23,CCACGGTAAC,1.41
24,CCACTATT,1.07
25,CCACTATTTA,1.03
26,CCACTCAGGT,1.47

row,Sequence,switch fluorescence ratio
1,CCACTCTTCT,0.955
2,CCACTGACTG,1.17
3,CCACTGGCGA,1.48
4,CCACTTCATT,1.15
5,CCAGAAACT,1.07
6,CCAGACAATC,2.31
7,CCAGAGGTCC,1.11
8,CCAGATTTCA,1
9,CCAGCCCCGG,1.1
10,CCAGCTATAG,3.28
11,CCAGCTGGAA,1.01
12,CCAGCTTCGA,1.06
13,CCAGGCAGTG,1.02
14,CCAGGTCTGT,1.16
15,CCAGGTGTAA,3.07
16,CCAGTCGTGT,1.05
17,CCAGTGCTAT,1.24
18,CCAGTGGCCA,0.982
19,CCAGTGGCCT,1.05
20,CCAGTTAGAT,0.966
21,CCAGTTGCT,1
22,CCATAAAACT,1.03
23,CCATAGCG,1.59
24,CCATAGCGAA,4.07
25,CCATAGGAAA,0.949
26,CCATATGAAT,1.03

row,Sequence,switch fluorescence ratio
1,CCATCAAGT,0.982
2,CCATCAGAAA,1.05
3,CCATCATTTG,1.03
4,CCATCCCGCG,2.34
5,CCATCCGCAC,2.63
6,CCATCCGGAT,1.14
7,CCATCGTAGA,0.981
8,CCATCGTGCA,1.08
9,CCATCTATGC,1.24
10,CCATGACTAT,0.996
11,CCATGCACGT,1.1
12,CCATGCTAGT,1.02
13,CCATGCTGCT,1.03
14,CCATGGGCGC,0.995
15,CCATGGGGCC,1.02
16,CCATTAACAG,1.01
17,CCATTAAGAC,1.17
18,CCATTACTTG,1.03
19,CCATTCAAA,1.02
20,CCATTGGGC,1.01
21,CCATTTACTC,1.2
22,CCATTTCGAT,1
23,CCCAAGTGCT,1.3
24,CCCAATGCTA,2.8
25,CCCACAGGCC,1.46
26,CCCACTAATC,1.18

row,Sequence,switch fluorescence ratio
1,CCCACTGTCT,1.01
2,CCCAGAAGGT,1.06
3,CCCAGAGTTA,1.14
4,CCCAGGAAC,1.05
5,CCCAGGCTCC,1.84
6,CCCATAGTAA,1.27
7,CCCATATATA,1.01
8,CCCATCCCGT,0.991
9,CCCATCGGT,0.989
10,CCCATGAATG,0.991
11,CCCATTGAAG,1.02
12,CCCATTT,1.07
13,CCCATTTGTG,1.14
14,CCCCAAGACA,1.2
15,CCCCACTGC,1.08
16,CCCCAGGGCA,4.7
17,CCCCCACACA,1.29
18,CCCCCCACTT,1.09
19,CCCCCCCGGT,1.28
20,CCCCCGTCGA,3.42
21,CCCCCGTGGC,3.3
22,CCCCGAACCG,1.17
23,CCCCGGCAGC,4.44
24,CCCCGGGTTA,1.37
